{"source": "paper PMC4336329", "about": "(PLoS ONE, 2015)", "note": "About 14,000 (4.5%) of roughly 310,000 compounds showed an effect of 50% or more. The effect is printed as a negative number. Some of the results follow.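 Also: peak tail current of the secondary pulse compared with the same well before compound.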", "data": [{"molecular_target": "human ether-à-go-go-related gene (hERG) potassium channel (human, UniProt Q12809)", "sequence (Q12809 whole entry, looked up)": "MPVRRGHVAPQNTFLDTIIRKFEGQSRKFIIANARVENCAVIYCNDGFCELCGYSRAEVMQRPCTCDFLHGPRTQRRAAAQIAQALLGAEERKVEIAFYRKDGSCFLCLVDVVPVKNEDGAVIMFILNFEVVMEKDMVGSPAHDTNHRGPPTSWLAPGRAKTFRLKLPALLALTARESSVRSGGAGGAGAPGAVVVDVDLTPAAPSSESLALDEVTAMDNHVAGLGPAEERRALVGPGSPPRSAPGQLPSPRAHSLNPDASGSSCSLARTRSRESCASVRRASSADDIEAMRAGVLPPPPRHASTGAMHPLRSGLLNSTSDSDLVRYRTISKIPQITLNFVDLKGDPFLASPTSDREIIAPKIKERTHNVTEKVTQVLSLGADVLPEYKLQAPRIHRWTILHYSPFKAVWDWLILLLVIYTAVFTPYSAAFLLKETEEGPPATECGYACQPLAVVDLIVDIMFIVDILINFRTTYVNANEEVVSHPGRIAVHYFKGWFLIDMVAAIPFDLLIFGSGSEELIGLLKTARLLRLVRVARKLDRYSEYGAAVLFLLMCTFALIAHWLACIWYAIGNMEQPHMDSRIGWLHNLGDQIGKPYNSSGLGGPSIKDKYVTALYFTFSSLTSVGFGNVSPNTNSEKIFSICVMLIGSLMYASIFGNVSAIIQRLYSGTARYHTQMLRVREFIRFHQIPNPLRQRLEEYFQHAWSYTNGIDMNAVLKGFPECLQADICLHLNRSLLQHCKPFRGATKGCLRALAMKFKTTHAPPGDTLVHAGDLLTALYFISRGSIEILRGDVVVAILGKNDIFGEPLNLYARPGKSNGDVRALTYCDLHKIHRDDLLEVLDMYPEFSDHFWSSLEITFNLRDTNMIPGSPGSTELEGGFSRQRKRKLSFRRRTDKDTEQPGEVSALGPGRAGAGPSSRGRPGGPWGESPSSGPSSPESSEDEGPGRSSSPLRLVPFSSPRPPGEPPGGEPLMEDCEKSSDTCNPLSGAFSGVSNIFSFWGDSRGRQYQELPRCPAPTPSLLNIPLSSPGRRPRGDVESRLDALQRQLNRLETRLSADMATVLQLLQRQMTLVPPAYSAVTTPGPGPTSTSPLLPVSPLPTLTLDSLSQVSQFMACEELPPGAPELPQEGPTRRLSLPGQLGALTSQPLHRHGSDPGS", "test": "primary screen, population patch clamp on CHO cells stably expressing hERG", "units": {"hERG current change (%, negative = inhibition) at 10uM": "%"}, "values": [{"smiles": "CCN(CC)S(=O)(=O)c1ccc(N2CCN(C)CC2)c(NC(=O)Nc2ccc(C)cc2)c1", "hERG current change (%, negative = inhibition) at 10uM": -12.2}, {"smiles": "O=[N+]([O-])c1ccc(C(=Nc2cccc3ccccc23)N2CCOCC2)cc1", "hERG current change (%, negative = inhibition) at 10uM": -63.5}, {"smiles": "Cc1cc(S(=O)(=O)Nc2cc(C)c(O)c(C)c2)c(C)s1", "hERG current change (%, negative = inhibition) at 10uM": -11.9}, {"smiles": "Cc1ccc(C2CN(CCC(N)=O)C(=O)CO2)cc1", "note": "(centres unmarked)", "hERG current change (%, negative = inhibition) at 10uM": 1.94}, {"smiles": "COCCNc1cc(NCCOC)c([N+](=O)[O-])cc1[N+](=O)[O-]", "hERG current change (%, negative = inhibition) at 10uM": 4.6}, {"smiles": "Cc1cc(/C=C2\\SC(=S)NC2=O)c(C)n1-c1cccc(O)c1", "hERG current change (%, negative = inhibition) at 10uM": 9.51}, {"smiles": "CCOC(=O)CN1C(=O)CC(c2ccc([N+](=O)[O-])cc2)C1=O", "note": "(centres unmarked)", "hERG current change (%, negative = inhibition) at 10uM": -14.1}, {"smiles": "COc1ccc2ccc3c(c2c1)N=CC1(O3)N(C)c2ccccc2C1(C)C", "note": "(centres unmarked)", "hERG current change (%, negative = inhibition) at 10uM": 3.92}, {"smiles": "CC1(C)N([O-])C(c2ccccc2)=C[N+](=O)C1(C)C", "hERG current change (%, negative = inhibition) at 10uM": 1.38}, {"smiles": "COc1ccc(NC(=O)Cc2c[nH]c3ccccc23)cc1S(=O)(=O)N1CCCCC1", "hERG current change (%, negative = inhibition) at 10uM": -6.59}, {"smiles": "Cc1ccc([N+](=O)[O-])cc1S(=O)(=O)Nc1ccc(-c2ccc(N3CCOCC3)nn2)cc1", "hERG current change (%, negative = inhibition) at 10uM": -47.1}, {"smiles": "CSC(C1CCCC1)n1nnc2ccccc21", "note": "(centres unmarked)", "hERG current change (%, negative = inhibition) at 10uM": -4.29}, {"smiles": "COc1cccc(NC(=O)C/C(C)=N/NC(=O)c2ccccc2Cl)c1", "hERG current change (%, negative = inhibition) at 10uM": 2.44}, {"smiles": "C=CCn1c(O)c(C(C)=NCc2ccco2)c(=O)[nH]c1=O", "hERG current change (%, negative = inhibition) at 10uM": -24.3}, {"smiles": "O=[N+]([O-])c1cc(C(F)(F)F)ccc1N1CCN(S(=O)(=O)c2ccc3c(c2)CCCC3)CC1", "hERG current change (%, negative = inhibition) at 10uM": -0.944}, {"smiles": "COc1ccc(N2CCN(C(=O)CSc3ccccc3)CC2)cc1", "hERG current change (%, negative = inhibition) at 10uM": 4.44}, {"smiles": "CCCNC(=O)c1cc(S(=O)(=O)N2CCCCC2)ccc1N1CCOCC1", "hERG current change (%, negative = inhibition) at 10uM": -32.2}, {"smiles": "C=CCC1(CC=C)CCCN1C(=O)c1cc(COc2cccc(C(F)(F)F)c2)on1", "hERG current change (%, negative = inhibition) at 10uM": 49.9}, {"smiles": "CCc1ccc(NC(=O)Cn2nc(C(=O)O)c3ccccc3c2=O)cc1", "hERG current change (%, negative = inhibition) at 10uM": 20.4}, {"smiles": "Cc1ccc(NC(=O)CC2SCCNC2=O)cc1Cl", "note": "(centres unmarked)", "hERG current change (%, negative = inhibition) at 10uM": -22.8}, {"smiles": "CC(=O)c1c(C)[nH]c(C(=O)OCC(=O)Nc2cccc(S(=O)(=O)N3CCCC3)c2)c1C", "hERG current change (%, negative = inhibition) at 10uM": -3.92}, {"smiles": "Cc1cc(C(=O)OCCN2C(=O)c3ccccc3C2=O)c2ccccc2n1", "hERG current change (%, negative = inhibition) at 10uM": -5.48}, {"smiles": "COc1ccc(-c2cn3c(C)c(C(=O)Nc4cccc(NC(C)=O)c4)sc3n2)cc1", "hERG current change (%, negative = inhibition) at 10uM": 11.3}, {"smiles": "Cc1ccc2cc(/C=N/Nc3ccc(C(=O)O)cc3)c(Cl)nc2c1", "hERG current change (%, negative = inhibition) at 10uM": 20.3}, {"smiles": "Br.CCn1c2c(c(=N)c3c1CCC3)CCC2", "hERG current change (%, negative = inhibition) at 10uM": 0.642}, {"smiles": "COc1cc(C2NC(=O)C(C#N)=C(Nc3cccc(C)c3)S2)ccc1O", "note": "(centres unmarked)", "hERG current change (%, negative = inhibition) at 10uM": 22.5}, {"smiles": "CC(C)OC(=O)c1c(NC(=O)c2ccco2)sc2c1CCCCC2", "hERG current change (%, negative = inhibition) at 10uM": 9.62}, {"smiles": "CCCCNC(=S)N/N=C1\\C(=O)c2cccc3cccc1c23", "hERG current change (%, negative = inhibition) at 10uM": -5.67}, {"smiles": "COc1ccccc1NC(=O)NCC1(N(C)C)CCCCC1", "hERG current change (%, negative = inhibition) at 10uM": -1.31}, {"smiles": "CCn1cc(C(=O)NCc2cccs2)c(=O)c2ccc(C)nc21", "hERG current change (%, negative = inhibition) at 10uM": 12.9}, {"smiles": "O=C1NN=C(c2ccc(Br)cc2)CC1c1ccc(Cl)cc1", "note": "(centres unmarked)", "hERG current change (%, negative = inhibition) at 10uM": 18.9}, {"smiles": "Nc1nc(Nc2ccccc2F)nc(N2CCCC2)c1[N+](=O)[O-]", "hERG current change (%, negative = inhibition) at 10uM": 4.5}, {"smiles": "COCCn1cc(C(=O)N2CCN(C)CC2)c2c3ccccc3n(C)c2c1=O", "hERG current change (%, negative = inhibition) at 10uM": 9.52}, {"smiles": "O=C(c1ccc([N+](=O)[O-])cc1)N1CCN(C(=O)c2cccnc2)CC1", "hERG current change (%, negative = inhibition) at 10uM": -15.7}, {"smiles": "O=[N+]([O-])c1ccccc1/C=C/C=N/Nc1nc(N2CCCCC2)nc(N2CCCCC2)n1", "hERG current change (%, negative = inhibition) at 10uM": -12.2}, {"smiles": "Cc1c(C(=O)OCC(=O)Nc2ccc(N3CCOCC3)cc2)oc2ccccc12", "hERG current change (%, negative = inhibition) at 10uM": 2.26}, {"smiles": "COc1ccc(C(C#N)Nc2ccccc2C)cc1", "note": "(centres unmarked)", "hERG current change (%, negative = inhibition) at 10uM": -5.25}, {"smiles": "O=C(CN1CCc2ccccc21)NC(=O)NC1CCCCC1", "hERG current change (%, negative = inhibition) at 10uM": -8.81}, {"smiles": "CCNC(=S)N1CCC(C(=O)c2ccc3c(c2)OCCO3)CC1", "hERG current change (%, negative = inhibition) at 10uM": 9.57}, {"smiles": "COc1ccc(-c2c(-c3ccccc3)c(C(=O)C(=O)NCCCN(C)C)n3ccc4cc(OC)c(OC)cc4c23)cc1OC", "hERG current change (%, negative = inhibition) at 10uM": -10.5}, {"smiles": "C/C(=N\\NC(=O)c1ccccc1C)c1ccc(NC(=O)c2cccs2)cc1", "hERG current change (%, negative = inhibition) at 10uM": 6.4}, {"smiles": "C=CCNC(=O)C12CCC(C)(C(=O)C1Br)C2(C)C", "note": "(centres unmarked)", "hERG current change (%, negative = inhibition) at 10uM": 15.4}, {"smiles": "Cc1cccc(NC(=O)C2CCCN(S(=O)(=O)c3cccs3)C2)c1C", "note": "(centres unmarked)", "hERG current change (%, negative = inhibition) at 10uM": 8.15}, {"smiles": "CCOC(=O)COC(=O)c1ccc(Oc2cc(C)nc(SC)n2)cc1", "hERG current change (%, negative = inhibition) at 10uM": -24.4}, {"smiles": "CS(=O)(=O)N1CCN(CC2CC3C=CC2C3)CC1.O=C(O)C(=O)O", "note": "(centres unmarked)", "hERG current change (%, negative = inhibition) at 10uM": 5.01}, {"smiles": "O=C(Oc1cc(-c2ccccc2)no1)c1ccc(F)cc1", "hERG current change (%, negative = inhibition) at 10uM": -2.71}, {"smiles": "CCC(=O)Nc1cc(C(=O)O)ccc1Sc1ccc(Cl)cc1", "hERG current change (%, negative = inhibition) at 10uM": -12}, {"smiles": "O=C(Nc1oc2ccccc2c(=O)c1-c1ccc(Br)cc1)c1ccco1", "hERG current change (%, negative = inhibition) at 10uM": -52.5}, {"smiles": "Cn1c(NCc2ccco2)nc2c1c(=O)n(Cc1ccc(Br)cc1)c(=O)n2C", "hERG current change (%, negative = inhibition) at 10uM": -6.48}, {"smiles": "COC(=O)c1[nH]c2ccc(F)cc2c1NC(=O)C1=COCCO1", "hERG current change (%, negative = inhibition) at 10uM": -15.9}, {"smiles": "CC(=O)CC(=O)Nc1ccc(Nc2ccccc2)cc1", "hERG current change (%, negative = inhibition) at 10uM": -2.87}, {"smiles": "O=C(Nc1ccc(NC(=O)C2CC2)nc1)c1cccs1", "hERG current change (%, negative = inhibition) at 10uM": 14}, {"smiles": "Cn1cc(C(=O)c2ccc(Cl)cc2Cl)cc1C(=O)N/N=C(\\N)COc1ccccc1", "hERG current change (%, negative = inhibition) at 10uM": -23.9}, {"smiles": "O=C1Cn2c(nc3ccccc32)N1c1cccc(C(F)(F)F)c1", "hERG current change (%, negative = inhibition) at 10uM": -20.1}, {"smiles": "O=C(Nc1cccc(-c2cnc3ccccc3n2)c1)c1ccc(Cl)cc1", "hERG current change (%, negative = inhibition) at 10uM": 1.04}, {"smiles": "Cc1ccc(C(=O)CN(C(=O)c2ccc(Cl)c(Cl)c2)N2C(=O)C3CCCCC3C2=O)cc1C", "note": "(centres unmarked)", "hERG current change (%, negative = inhibition) at 10uM": -0.798}]}]}
